Results from PubChem BioAssay AID720708 (National Center for Advancing Translational Sciences (NCATS), 2013).
In all, about 360,000 compounds went through this assay and about 660 (0.18%) were called active. The inconclusive results got no clear call from the source; some entries with a clear call stand among them for comparison. Calls follow the shape of the dose curve; as a rule, active = well fitted inhibition curve with a large enough effect; inconclusive = small, poorly fitted or top-dose-only effect; inactive = no such curve, though single readings can be large or run the other way. No potency is given beside an inconclusive call; the fits are too rough.

The molecules below were run against Rap guanine nucleotide exchange factor 4 (Homo sapiens) (UniProt Q8WZA2) (assay: qHTS for Antagonist of cAMP-regulated guanine nucleotide exchange factor 2 (EPAC2): primary screen). Conditions: EPAC2 GEF exchange of Rap1B-BODIPY-GDP, fluorescence; activity, negative = inhibition: at 114 µM (top of the series) unless noted.
% is scaled to controls: 0 for no effect and ±100 for the full control effect; potency is read from the fitted curve at half-maximal effect; tags tell the direction and shape of the fitted curve.
Also: nearly all actives have a fitted effect of over 45% in size.

Chain of UniProt Q8WZA2 (Q8WZA2 whole entry, looked up): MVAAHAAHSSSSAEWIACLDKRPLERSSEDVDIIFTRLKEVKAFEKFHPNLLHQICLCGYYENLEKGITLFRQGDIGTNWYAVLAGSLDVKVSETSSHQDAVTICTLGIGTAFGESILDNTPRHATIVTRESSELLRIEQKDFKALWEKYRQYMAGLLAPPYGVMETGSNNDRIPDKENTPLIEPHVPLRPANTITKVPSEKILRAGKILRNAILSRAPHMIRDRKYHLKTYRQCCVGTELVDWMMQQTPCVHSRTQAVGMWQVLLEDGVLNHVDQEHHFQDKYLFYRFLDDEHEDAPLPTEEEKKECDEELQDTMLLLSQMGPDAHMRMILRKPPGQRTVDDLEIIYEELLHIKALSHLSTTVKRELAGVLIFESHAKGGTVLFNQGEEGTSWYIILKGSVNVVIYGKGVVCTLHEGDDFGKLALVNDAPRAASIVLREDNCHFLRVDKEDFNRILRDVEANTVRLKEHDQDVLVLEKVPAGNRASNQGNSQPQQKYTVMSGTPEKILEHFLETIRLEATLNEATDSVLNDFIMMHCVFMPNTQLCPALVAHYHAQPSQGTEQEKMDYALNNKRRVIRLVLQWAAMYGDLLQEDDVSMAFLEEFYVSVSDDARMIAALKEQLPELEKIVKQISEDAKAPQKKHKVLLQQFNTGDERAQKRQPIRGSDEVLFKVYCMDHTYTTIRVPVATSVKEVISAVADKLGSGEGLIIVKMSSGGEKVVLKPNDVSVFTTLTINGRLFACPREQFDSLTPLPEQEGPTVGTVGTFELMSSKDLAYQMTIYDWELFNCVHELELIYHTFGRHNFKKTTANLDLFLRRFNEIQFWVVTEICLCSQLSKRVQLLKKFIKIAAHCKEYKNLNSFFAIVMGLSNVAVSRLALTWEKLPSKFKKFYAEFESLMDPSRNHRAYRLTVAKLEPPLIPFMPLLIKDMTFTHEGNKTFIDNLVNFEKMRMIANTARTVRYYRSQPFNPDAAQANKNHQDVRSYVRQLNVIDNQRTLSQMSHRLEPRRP

SMILES | activity, negative = inhibition | Potency
COC(=O)[C@@]12C[C@@H](CC(=O)NCCc3ccccc3OC)C(=O)N(Cc3ccccc3)C1=CCC(C)(C)C2 | inactive: -20.5% | –
Cc1cccc(C(C)C)c1NC(=O)Cc1ccc(S(=O)(=O)N2CCOCC2)s1 | – | inconclusive [inhibitor, single point]
COc1ccc(S(=O)(=O)NCC(=O)N(CC(=O)NCC2CCCO2)c2c(C)cccc2C)cc1 (centres undefined) | inactive: -10.2% | –
CC(C)CCNC(=O)c1c[nH]c2ccc(S(=O)(=O)N3CCC4(CC3)OCCO4)cc2c1=O | – | inconclusive [inhibitor, full curve, poor fit]
Cc1ccccc1NC(=O)CSc1ccc(-c2ccco2)nn1 | inactive: -1.75% | –
COC(=O)C1=C(C)N(Cc2ccccc2)C(=O)N[C@H]1c1ccccc1 | – | inconclusive [inhibitor, partial curve]
CCCCCc1c(-c2ccccc2)ncn1CCc1ccccc1OC | – | inconclusive [inhibitor, partial curve]
CCOc1ccccc1NC(=O)Cn1nnc(C(=O)Nc2ccc(C)cc2)c1N | inactive: 12.4% | –
O=C1S/C(=C\c2ccc(N3CCOCC3)o2)C(=O)N1c1ccccc1 | inactive: 30.5% | –
CCCCCCCCCCOC(=O)Cn1c(COc2ccccc2OC)[n+](C)c2ccccc21 | – | inconclusive [inhibitor, full curve]
Cc1ccc(NC(=O)c2sccc2-n2cccc2)c(Cl)c1 | – | inconclusive [inhibitor, partial curve]
CCCCCCC[C@@H](C/C=C/CCC(=O)N(C)C/C(=C/Cl)C/C(=C\C(=O)N1CC(OC)=CC1=O)OC)OC | – | inconclusive [inhibitor, full curve]
CCN(CC)CCCN(C(=O)c1cccc(C)c1)c1nc(-c2ccc(OC)cc2)cs1 | inactive: -2.06% | –
FC(F)(F)c1nc(NCc2cccnc2)c2ccccc2n1 | inactive: -9.02% | –
CC(C)CC(C(=O)NC1CCCCC1)N(Cc1ccccc1)C(=O)c1snc(C(N)=O)c1N (centres undefined) | – | inconclusive [inhibitor, partial curve]
O=C(CSc1ccccc1)Nc1nnc(COc2ccc(Cl)cc2)s1 | inactive: -8.75% | –
O=C(O)CN1C(=O)/C(=C\c2cccc(OCc3ccc(Cl)cc3)c2)SC1=S | – | inconclusive [inhibitor, partial curve]
CCOC(=O)c1ccc2c(c1)NC(=O)C(N1CCN(c3ccc(OC)cc3)CC1)S2 (centres undefined) | inconclusive: 11.4% [inhibitor] | –
Cc1cccc(N(C(=O)c2csnn2)C(C(=O)NCc2ccccc2)c2cccs2)c1 (centres undefined) | – | inconclusive [inhibitor, partial curve]
CCc1cc(-c2nnn(-c3cc(C(C)C)ccc3C)c2CC)ccc1-c1cn(CCc2c[nH]c3ccccc23)nn1 | inactive: 1.33% | –
COc1ccc(-c2ncncc2-c2csc(C)n2)c(O)c1OC | inactive: 6.28% | –
CC(=O)Nc1cc(-c2cccnc2)cn2c(-c3cccc(C(F)(F)F)c3)cnc12 | – | inconclusive [inhibitor, full curve]

SMILES | activity, negative = inhibition | Potency
CSCCNC(=O)c1ccc(C(C)(C)C)cc1 | inactive: 1.15% | –
C=CCc1cccc2cc(C(=O)Nc3ccc(CC(=O)O)cc3)c(=O)oc12 | inactive: -20.2% | –
CCCc1c(OCCCCc2nn[nH]n2)ccc(C(C)=O)c1O | – | inconclusive [inhibitor, full curve]
COc1ccc(C2CC(c3cccs3)=Nc3ccccc3S2)cc1 (centres undefined) | – | inconclusive [inhibitor, full curve]
O=S(=O)(c1ccc(N=C2NN=C(c3cc(F)ccc3F)CS2)cc1)N1CCOCC1 | inactive: 1.56% | –
O=C1[C@H]2CCC=C[C@H]2[C@H](c2cccc(Br)c2)N1Cc1ccccc1 | – | inconclusive [inhibitor, partial curve]
COc1cccc(C2=NN(C(=O)c3ccco3)C(c3ccco3)C2)c1 (centres undefined) | – | active: 14.1 µM
C=CC[C@H](CC(=O)NCCO)C(=O)N[C@H](COC(=O)[C@H](CC=C)CC(=O)OC(C)(C)C)c1ccccc1 | inactive: -0.631% | –
Cc1ccc(S(=O)(=O)N2CC(C(=O)O)=CC[C@H]2c2ccc(Cl)cc2)cc1 | – | inconclusive [inhibitor, partial curve]
COC(=O)c1cn(C(=O)c2cc(Br)ccc2Cl)c2ccccc12 | – | inconclusive [inhibitor, full curve]
CC(=O)N(/N=C1/C(=O)Nc2ccccc21)c1ccccc1 | – | inconclusive [inhibitor, single point]
OC(c1ccccc1)(c1nc(-c2cccc(C(F)(F)F)c2)cs1)C(F)(F)F (centres undefined) | – | inconclusive [inhibitor, partial curve]
COc1ccc(/C=C/C(=O)OCC(=O)c2c(N)n(C)c(=O)n(C)c2=O)c(OC)c1 | – | inconclusive [inhibitor, single point]
CC(=O)NCCCC(=O)NN1C(=S)N(Cc2ccccc2)C(=O)C1CC(=O)Nc1cccc(C)c1 (centres undefined) | – | inconclusive [inhibitor, single point]
COc1ccccc1Sc1nc(-c2ccccc2)ncc1OC | – | inconclusive [inhibitor, partial curve]
COc1cc(CNCCSc2nnnn2C)cc(Br)c1OCc1ccccc1 | – | inconclusive [inhibitor, single point]
CC(=O)C(Sc1nnnn1-c1ccc(O)cc1)c1ccccc1 (centres undefined) | – | inconclusive [inhibitor, partial curve]
CC1(c2ccccc2)CC(C)(C)N2C(=O)Cc3cccc1c32 (centres undefined) | – | inconclusive [inhibitor, partial curve]
O=C1CCCC2=C1C(c1ccc(O)c(O)c1)Nc1ccc3ccccc3c12 (centres undefined) | – | inconclusive [inhibitor, partial curve]
O=C1c2ccccc2C(c2nnnn2-c2ccc3c(c2)OCCO3)N1CCc1ccc(O)cc1 (centres undefined) | – | inconclusive [inhibitor, single point]
O=C1CS(=O)(=O)N(Cc2ccc(F)cc2)c2ccccc21 | inactive: -25.6% | –
CCc1cc(=O)oc2cc(C)cc(OCC(=O)N[C@@H](CSCc3ccccc3)C(=O)O)c12 | – | active: 56.2 µM
